Values joined by “and” are separate entries in the source; they are usually repeats but may differ in a detail not shown here. Equal entries are not always repeated. Among all 340,000 compounds or so, about 6,900 (2%) were called active. No stated cut-off is given here; in the data, active means inhibition above about 30%; inactive means below that, where a call was filed. The list shows a part of the results, in another mix than the full data. Entries without a call were filed so in the source.

Usually inhibition stands for the change of the read-out against control, counted positive when it falls.

This assay deals with D(2) dopamine receptor (Homo sapiens) (UniProt P14416). Briefly: HTS Assay for Allosteric Antagonists of the Human D2 Dopamine Receptor: Primary Screen for Antagonists. Further: 0% is about no effect. The settings on record: HEK293 TREx D2 cells, calcium flux, dopamine EC80; at 10 µM; stronger effect = higher value. Put shortly: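 Overnight-induced (tetracycline, 30 C) HEK293 T-REx cells carrying force-coupled D2 receive a no-wash calcium dye, then compound, then EC80 dopamine at 180 s; signals are read kinetically throughout.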
UniProt P14416, sequence (P14416 whole entry, looked up): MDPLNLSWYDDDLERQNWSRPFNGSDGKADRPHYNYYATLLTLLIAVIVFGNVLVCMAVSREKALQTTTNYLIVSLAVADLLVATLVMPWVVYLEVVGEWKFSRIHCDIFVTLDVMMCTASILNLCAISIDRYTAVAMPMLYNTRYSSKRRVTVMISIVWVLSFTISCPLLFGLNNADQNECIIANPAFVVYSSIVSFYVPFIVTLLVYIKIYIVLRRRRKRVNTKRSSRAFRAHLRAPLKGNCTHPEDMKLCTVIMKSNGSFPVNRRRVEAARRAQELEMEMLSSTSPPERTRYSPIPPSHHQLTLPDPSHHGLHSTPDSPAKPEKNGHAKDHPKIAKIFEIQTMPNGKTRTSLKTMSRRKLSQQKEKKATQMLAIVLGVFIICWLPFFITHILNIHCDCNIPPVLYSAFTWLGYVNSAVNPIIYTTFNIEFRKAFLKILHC
In the case of `CCCCSCCCNC(=O)CN1C(=O)COc2ccc(S(=O)(=O)N3CCCC3)cc21`, the inhibition was -11.1%.

As to `COc1ccc(CNc2nc(-c3ccc(OC)c(OC)c3)cc(C(F)(F)F)n2)cc1`, the inhibition is -12.1%.

Regarding `CCOCCCNC(=O)N1CCN(S(=O)(=O)c2ccc3c(ccn3C)c2)CC1`, the inhibition is 7.12%.

As for `COc1ccc(-c2noc(-c3ccc(N4CCOCC4)c([N+](=O)[O-])c3)n2)cc1OC`, the inhibition worked out at 10.4%.

With `Cc1ccc(CN2CCC(NC(=O)c3ccccc3)CC2)cc1`, the inhibition was active: 89.7%.

Regarding `Cc1ccc(S(=O)(=O)N(Cc2nc(-c3ccc(Cl)cc3)no2)C2CCCCC2)cc1`, the inhibition was -4.82%.

As to `O=S(=O)(Nc1c(F)cccc1F)c1ccc2c(c1)OCCO2`, the inhibition was 9.74%.

As to `COc1ccc(Cl)cc1C(=O)NNC(=S)NC(=O)c1ccc(F)c(F)c1`, the inhibition was active: 40.4%.

For the compound `Cc1ccc2oc(C(=O)Nc3c(C(=O)c4ccc(C)c(F)c4)oc4ccccc34)cc(=O)c2c1`, the inhibition is -9.01%.

`CCn1nnc2cc(C(=O)Nc3cccc(C(F)(F)F)c3)ccc21`: the inhibition was -8.63%.

For the compound `COc1ccc(C)cc1NC(=O)C(CCSC)NS(=O)(=O)c1ccc2c(c1)oc(=O)n2C` (configuration not stated), the inhibition was -7.38%.

For `CCOC(=O)N1CCc2c(sc3c2c(=O)n(Cc2ccccc2)c(=O)n3CC(=O)Nc2ccccc2F)C1`, the inhibition is -15.2%.

Take `CC(C)NC(=O)c1cnc2sc(N3CCCCCC3)nn2c1=O`: the inhibition is 2.43%.

On to `CCOC(=O)c1c(C)[nH]c(CCC(=O)Nc2ccc(N(CC)CC)cc2C)c1C`, for which the inhibition came out at 4.03%.

Regarding `COc1ccc(CN(C(=O)Nc2ccccc2)c2ccccn2)cc1OC`, the inhibition was 5.61%.

With `Cc1ccc(CCNC(=O)CCSCc2ccccc2F)cc1`, the inhibition was -7.32%.

For `Cc1cccc(Cn2c(=O)n(CCc3ccccc3)c(=O)c3sc4ccccc4c32)c1`, the inhibition came to 12.4%.

As to `CCOC(=O)c1cc(-c2ccccc2)nn1Cc1ccccc1`, the inhibition stood at 0.94%.

For the compound `O=C(CCOc1ccccc1)N(Cc1cccnc1)c1nc2c(Cl)cccc2s1`, the inhibition amounted to 12.3%.

Turning to `CN1C2CCC1CC(OC(c1ccccc1)c1ccccc1)C2` (configuration not stated), the inhibition was active: 36.2%.

Take `Cc1ccc(C2c3[nH]c4ccccc4c3CCN2C(=O)c2ccc(N(C)C)cc2)cc1` (configuration not stated): the inhibition is 22.6%.

For `COc1ccc(Br)cc1CN1CCCC(C(=O)N2CCCCCC2)C1` (configuration not stated), the inhibition is active: 32.4%.

Consider `Cc1ccc(C)c(N2CCN(C(=O)C3CCN(Cc4nc(-c5cccc(Cl)c5)oc4C)CC3)CC2)c1`, for which the inhibition was determined as 22%.

In the case of `O=C(c1cccs1)N(Cc1ccco1)Cc1cc2ccccc2[nH]c1=O`, the inhibition is active: 59.8%.

As to `NC(=O)C1(N2CCCCC2)CCN(C(=O)Nc2ccc(Cl)c(Cl)c2)CC1`, the inhibition is -17.7%.

Regarding `COc1cccc(NC(=O)c2sc3nc(C)c(C(=O)Nc4ccc(C)cc4C)c(-c4ccc(Br)cc4)c3c2N)c1`, the inhibition was -6.7%.

For `Cc1cc(Cl)ccc1NC(=O)C1CCN(S(=O)(=O)c2ccc3[nH]c(=O)ccc3c2)CC1`, the inhibition was -22.2%.

As for `COc1ccc(N2CCN(C(=O)c3cc4c(=O)n(Cc5cccs5)ccc4nc3C)CC2)cc1`, the inhibition was 1.5%.

On to `Cc1ccc2nc(SC(Cc3cc(Cl)ccc3Cl)C(=O)O)[nH]c2c1` (configuration not stated), for which the inhibition is -4.76%.

Regarding `COc1ccc(CNC(=O)c2cc3sccc3n2C)cc1`, the inhibition stood at 5.21%.

Consider `Cc1nc2nc(SCC(=O)c3cccc([N+](=O)[O-])c3)[nH]c2cc1Br`, for which the inhibition is active: 38.3%.

On to `Cc1cccc(CN2C(=O)c3ccccc3Sc3ccc(C(=O)NCCc4ccccc4)cc32)c1`, for which the inhibition was -9.52%.

On to `CCC(=O)N1CCc2cc(CNS(=O)(=O)c3ccc(Cl)s3)ccc21`, for which the inhibition is -6.46%.

As for `Cc1cc(Nc2cccc(F)c2)n2nc(-c3ccco3)nc2n1`, the inhibition is -21.4%.

On to `CCc1cccc(CC)c1NC(=O)Cc1csc(C)n1`, for which the inhibition was -2.29%.

On to `CSc1ccc(C2c3c(oc4ccc(F)cc4c3=O)C(=O)N2c2ccc(C)cn2)cc1` (configuration not stated), for which the inhibition was 8.24%.

As to `Cc1ccc2nc(Nc3ccc(Br)cc3)nc(-c3ccccc3)c2c1`, the inhibition was 2.63%.

On to `COc1ccc(OC)c(NC(=O)c2ccc(-c3nc(COc4ccccc4)c(C)o3)cc2)c1`, for which the inhibition was -1.11%.

`Cc1cccc(N(C)C(=O)C2CCN(S(=O)(=O)c3cccc4nonc34)CC2)c1`: the inhibition is -2.45%.

For `Cc1c(NC(=O)c2cc3ccccc3o2)cccc1-c1nc2ccccc2o1`, the inhibition is -0.16%.

For `CCCCc1nn2c(=O)cc(COC(=O)CNC(=O)c3ccccc3C)nc2s1`, the inhibition turned out to be 6.98%.

As to `CCOc1ccc2oc(=O)cc(CN3CCN(C(=O)c4ccc(Cl)cc4)CC3)c2c1`, the inhibition is 14.6%.

Consider `Cc1ccc(C(C)C)c(OCCSc2nc(-c3cccs3)nc3cc(=O)[nH]n23)c1`, for which the inhibition worked out at 9.23%.

As for `COc1ccc(OC)c(NC(=O)Cn2cc(C(=O)c3cccs3)c3ccccc32)c1`, the inhibition is 19.4%.

Regarding `COc1ccc(/C=C/C(=O)Nc2ccc(Cl)c(Cl)c2)cc1OC`, the inhibition was -5.37%.

As for `O=C(Cn1c(=O)oc2cc(S(=O)(=O)NCc3ccccc3)ccc21)NCc1ccc(F)cc1`, the inhibition worked out at 4.38%.

`CCOc1ccc(NC(=O)c2cc(CN3CCCC3)on2)cc1`: the inhibition worked out at 13.2%.

Turning to `O=C(Cn1nc(C(F)(F)F)c2c1CCCC2)Nc1ccc(F)c(Cl)c1`, the inhibition came to 4.5%.

As to `COc1ccc(-c2ccc(=O)n(CC(=O)Nc3ccc(N(C)C)cc3)n2)cc1`, the inhibition came out at 3.22%.

As for `CC(=O)Nc1ccc(NC(=O)Nc2sc3nc4n(c(=O)c3c2C)CCC(C)CC4)cc1` (configuration not stated), the inhibition was -13.5%.

With `Cc1c(C(=O)NCc2ccc(F)cc2)sc2nc3n(c(=O)c12)CCC3`, the inhibition was found to be 15.7%.

For `COC(=O)COc1ccc(Oc2nc(NC(C)(C)C)nc(N3CCOCC3)n2)nn1`, the inhibition stood at 8.23%.

`CCOc1ccccc1CNC(=O)Cn1nc(C)c2nn(-c3ccc(Cl)cc3)c(C)c2c1=O`: the inhibition was -6.52%.

With `COc1ccc(N2CCN(S(=O)(=O)c3c(C)nc4sc(C)cn4c3=O)CC2)cc1`, the inhibition is 0.347%.

Take `Cc1cccc(OCC(=O)NCc2ccc3c(c2)CCN3C(=O)c2ccccc2)c1`: the inhibition stood at 16.2%.

In the case of `COc1ccc(Cc2nc3c4cnn(-c5ccccc5Br)c4ncn3n2)cc1`, the inhibition was determined as 17%.

Consider `CC1=C(c2ccc(C)c(C)c2)S(=O)(=O)N(Cc2ccc(C(=O)NCc3ccc(C)cc3)cc2)C1=O`, for which the inhibition was -0.54%.

`O=C(Nc1nnc(S(=O)(=O)N2CCCC2)s1)c1ccccc1Cl`: the inhibition was -6.19% and active: 34.9%.

On to `CCn1ccc2cc(S(=O)(=O)N3CCC(C(=O)NCc4ccc(OC(C)C)cc4)CC3)ccc21`, for which the inhibition was found to be 21.9%.

For `O=C(Nc1cccc(Cl)c1)NC1CC2CCC(C1)N2Cc1ccco1` (configuration not stated), the inhibition is active: 64.3%.

Regarding `Cc1ccccc1NC(=O)c1ccccc1NC(=O)c1ccccc1F`, the inhibition is 7.18%.

As for `COc1ccc(-c2nc3ccc(C(=O)NCc4ccccc4)cc3nc2-c2ccc(OC)cc2)cc1`, the inhibition is 6%.
